Reference: article PMC10668032
This is one part of the list. At the low end of the ranking the order means little.

Biological target: SIX1 homeodomain (reference allele) (UniProt Q15475)
Experiment: universal protein binding microarray
Settings: Universal all-10-mer PBM (8x60K, AMADID 030236), 300 nM GST-tagged protein, Alexa Fluor 488 anti-GST; buffer, salt, pH and temperature not stated; high values mean tight binding; most listed sequences are background and not binding sites; double strand, one strand shown

Sequence	binding signal
ACTAGGCA	-0.256 E-score
CACACGAG	-0.0542 E-score
GCGCCCGC	-0.139 E-score
ATTACACG	0.0504 E-score
TGAAAAAA	-0.114 E-score
GAAGCATA	-0.0666 E-score
AGGGAAAA	-0.292 E-score
CCCGCACG	-0.0165 E-score
TACATGGA	0.0595 E-score
CCCTGAAC	0.0887 E-score
ACCGCTCG	-0.0716 E-score
CCGGTGAA	-0.06 E-score
CAATTTGC	-0.274 E-score
GAGTTTGC	-0.24 E-score
ACTCCGTA	-0.188 E-score
AAATATTT	-0.298 E-score
ACAGCCGT	-0.0851 E-score
CCCACGCC	0.0266 E-score
ATTGCGTC	0.103 E-score
CGAATAGA	-0.013 E-score
CATGACAA	-0.0593 E-score
AGTCAGAG	-0.108 E-score
AAACAGGG	-0.187 E-score
CAACGGCC	-0.184 E-score
AATCGATG	0.0645 E-score

Sequence	binding signal
GACGTACA	-0.261 E-score
CGGGCTCA	0.2 E-score
ACACTGGA	0.0621 E-score
AACCGGAA	-0.121 E-score
TCCAAAGA	-0.0955 E-score
CAGATGAA	-0.154 E-score
GGTATGAC	0.0985 E-score
ATGAACCG	-0.0565 E-score
ATATACGC	0.244 E-score
GATAAATC	0.0669 E-score
GCATATCA	0.449 E-score
AAACGCGG	-0.0723 E-score
CCTAAGCG	-0.0557 E-score
GATAGTCA	0.189 E-score
CGAGAGGC	-0.244 E-score
CTCCAAAG	-0.137 E-score
AAGTGGGG	0.0277 E-score
AGGCAGTG	-0.0501 E-score
CAGCAGTC	-0.196 E-score
CAGAATTA	-0.13 E-score
GCAGGGAC	-0.274 E-score
TGTGTAAA	-0.0643 E-score
CTTCGTTC	-0.263 E-score
GCGCGAGC	-0.174 E-score
GTAGTTCA	-0.182 E-score

Sequence	binding signal
GAGACCGC	-0.063 E-score
ACTGCCTG	-0.0571 E-score
CAGTCCTA	-0.047 E-score
ATGTCTAG	-0.0916 E-score
CTGGGCCC	-0.151 E-score
CCAGTTAG	-0.0757 E-score
AAGCCGGG	0.0364 E-score
CCTAAACC	-0.01 E-score
ACTACAAA	0.0539 E-score
GTTAGACA	0.0126 E-score
ATGAGAGA	0.0474 E-score
CCGGTCAC	-0.0592 E-score
AAAAGCTG	-0.233 E-score
CTACAACC	-0.205 E-score
CTAGAAGA	0.115 E-score
GTGCTAAA	-0.202 E-score
CTATCGTA	0.266 E-score
CCGTCCCC	-0.0726 E-score
GCCGTAGA	-0.00802 E-score
AGGTGGGA	-0.0676 E-score
CAGCGCTG	-0.216 E-score
GCACACAA	-0.2 E-score
CAGGACGG	-0.0904 E-score
CGCACTTA	-0.182 E-score
GTATCTTA	0.312 E-score

Sequence	binding signal
TCCTATAA	-0.00245 E-score
AAGCAAGC	-0.4 E-score
CTATGAGC	-0.131 E-score
GGCGGGCA	-0.0717 E-score
CAGAAGCG	-0.0128 E-score
AGGGCCAC	-0.417 E-score
GGGTTCAC	0.127 E-score
AGTCAACC	-0.123 E-score
CAGAGATA	0.27 E-score
ACTCACGC	-0.203 E-score
CCTACCAG	-0.139 E-score
ATCGGCAC	0.23 E-score
GAGACCGA	0.128 E-score
AGCCCCAT	-0.0405 E-score
AGAAGTAG	-0.13 E-score
ATATCTTC	0.365 E-score
TCGCGAGA	0.0699 E-score
AATCCCCT	0.216 E-score
AGGAAGAG	-0.0717 E-score
ATCCTAAA	0.184 E-score
GGCCTCGA	-0.215 E-score
AATAGATA	0.253 E-score
ATCGTTGC	0.202 E-score
ATGCTATA	0.0549 E-score
CGCGGGTA	0.142 E-score

Sequence	binding signal
ATGAGAAC	0.131 E-score
AAGACGGT	-0.0248 E-score
TCCTACGA	-0.0614 E-score
GCGGAATA	0.0364 E-score
AAGGTGGG	-0.265 E-score
AATGTTGC	-0.15 E-score
CACTACCA	-0.0578 E-score
AACCACCT	-0.134 E-score
ATACTACC	0.23 E-score
ACATCTCC	0.101 E-score
GGTCAGAC	-0.225 E-score
TTCTACAA	-0.0467 E-score
ACCCGCAC	0.0488 E-score
AGAGGCTC	-0.11 E-score
ACAGTGGC	-0.174 E-score
ATCGCAGA	0.203 E-score
ATGTCCAA	-0.0384 E-score
AAAGAACG	-0.181 E-score
GATCCTAA	0.262 E-score
CTTCTGCC	-0.134 E-score
ATAACATG	-0.05 E-score
CGTATTAA	0.222 E-score
ACAAGGAG	0.0908 E-score
AACTACGA	-0.0463 E-score
ACATTTTG	-0.156 E-score

Sequence	binding signal
GTACCTGA	0.138 E-score
ATGTCGGC	-0.131 E-score
GATCACTA	0.371 E-score
AAGGAGCA	-0.137 E-score
TGTTCGAA	-0.114 E-score
ACGAGATC	0.26 E-score
AGAGGACC	-0.272 E-score
AAACCCTA	0.0456 E-score
CATTCACC	-0.18 E-score
GAAACGGC	-0.139 E-score
ACAACTCG	-0.0796 E-score
ATACTCAA	0.274 E-score
CAACTTTC	-0.259 E-score
AAAAGGTT	-0.123 E-score
AAACAGCG	-0.113 E-score
AACTATGA	0.00686 E-score
CCTCAGGA	0.0598 E-score
CATACAAG	0.0377 E-score
CCTGAATA	0.0703 E-score
CGCGTCAC	-0.194 E-score
GATACGAA	0.335 E-score
TCCAACCA	0.0228 E-score
ACGTGGAG	-0.114 E-score
GCAGACCA	-0.234 E-score
TCGTCACA	0.0764 E-score

Sequence	binding signal
AGTGGAAA	-0.245 E-score
AAGAGCTA	-0.0769 E-score
TCTCTCCA	0.0854 E-score
AGTAATCC	0.126 E-score
ATTGCATG	0.156 E-score
ACTAGAGA	0.00715 E-score
TATTATAA	0.0629 E-score
ATTGACCC	0.155 E-score
CCTCGTAA	-0.145 E-score
AGCCGCAC	-0.0287 E-score
CAACTCAG	-0.0971 E-score
TGGTTTAA	-0.0477 E-score
GGAGCGGA	0.06 E-score
GCGCTTTA	-0.13 E-score
ACAGGTCC	-0.125 E-score
GAGGATCC	0.366 E-score
AAGGATGG	0.00539 E-score
CGAAGTCC	-0.326 E-score
GCGAGAAC	-0.158 E-score
CCGAGCTA	-0.0515 E-score
CAGGTTCC	-0.253 E-score
CGGCAGTA	0.00713 E-score
